# Literature values in article PMC11006913.
# Some of the results follow.
# Key:
# Conditions in all cases: PBM; conditions not shown; double strand, one strand shown; scale: upbm affinity estimate (log intensity, higher = more binding, comparable within an allelic series)
# [1] = target: HOXD13 Q325K (Homo sapiens) (UniProt P35453)
# [2] = target: HOXD13 I322L (Homo sapiens) (UniProt P35453)
# [3] = target: HOXD13 N298S (Homo sapiens) (UniProt P35453)
# [4] = target: HOXD13 Q325R (Homo sapiens) (UniProt P35453)
# [5] = target: HOXD13 S316C (Homo sapiens) (UniProt P35453)
# [6] = target: HOXD13 R306W (Homo sapiens) (UniProt P35453)
# [7] = target: PITX2 L100Q (Homo sapiens) (UniProt Q99697)
# [8] = target: PITX2 R108H (Homo sapiens) (UniProt Q99697)
# [9] = target: PITX2 R130W (Homo sapiens) (UniProt Q99697)
# [10] = target: PITX2 T114P (Homo sapiens) (UniProt Q99697)
# [11] = target: ISX (Homo sapiens) (UniProt Q2M1V0)
# [12] = target: ISX R83Q (Homo sapiens) (UniProt Q2M1V0)
# [13] = target: PROP1 R112Q (Homo sapiens) (UniProt O75360)
# Sequence of UniProt O75360 (O75360 56-141 R112Q): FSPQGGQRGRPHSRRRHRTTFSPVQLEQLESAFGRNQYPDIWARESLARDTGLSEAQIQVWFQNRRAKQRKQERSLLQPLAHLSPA
sequence,measurement,setting,value
TGGGATAA [8-mer TGGGATAA],binding signal,[1],12.1
AGTTTACC [8-mer AGTTTACC],binding signal,[2],10.8
same,binding signal,[3],10.8
same,binding signal,[4],10.6
AGGTATAA [8-mer AGGTATAA],binding signal,[1],12.2
GGATAAAC [8-mer GGATAAAC],binding signal,[1],13
TCTCGTAA [8-mer TCTCGTAA],binding signal,[2],12.4
same,binding signal,[3],12.4
GTTAATAA [8-mer GTTAATAA],binding signal,[3],12.5
AGGCATAA [8-mer AGGCATAA],binding signal,[1],12.1
AAGTCATT [8-mer AAGTCATT],binding signal,[3],11
same,binding signal,[5],10.6
GTCTCATA [8-mer GTCTCATA],binding signal,[3],11.1
same,binding signal,[5],10.8
CCGTAAAA [8-mer CCGTAAAA],binding signal,[2],12.1
CTTCATGA [8-mer CTTCATGA],binding signal,[3],10.8
GTATTAAC [8-mer GTATTAAC],binding signal,[1],12.4
GTAAAGGA [8-mer GTAAAGGA],binding signal,[2],10.8
same,binding signal,[3],10.9
ATTTATCC [8-mer ATTTATCC],binding signal,[1],13
GGGTATAA [8-mer GGGTATAA],binding signal,[1],12.4
AGATAAAT [8-mer AGATAAAT],binding signal,[1],12.5
GGATAACC [8-mer GGATAACC],binding signal,[1],11.8
ATTTTACA [8-mer ATTTTACA],binding signal,[2],12
CATAGTGA [8-mer CATAGTGA],binding signal,[3],10.7
same,binding signal,[5],10.6
CTCGTAAG [8-mer CTCGTAAG],binding signal,[2],11.9
CGAGTAAA [8-mer CGAGTAAA],binding signal,[2],10.7
same,binding signal,[3],10.8
same,binding signal,[1],11
AGATAAAA [8-mer AGATAAAA],binding signal,[1],12.5
GTTAACTA [8-mer GTTAACTA],binding signal,[2],11.8
TATTAAAA [8-mer TATTAAAA],binding signal,[3],12.5
same,binding signal,[4],12.1
same,binding signal,[6],11.7
GGCTAAAA [8-mer GGCTAAAA],binding signal,[1],11.7
ATCATTAA [8-mer ATCATTAA],binding signal,[3],12.4
TGCATAAA [8-mer TGCATAAA],binding signal,[1],12.2
GTAGTAAA [8-mer GTAGTAAA],binding signal,[2],12
ATTTATGC [8-mer ATTTATGC],binding signal,[1],12.4
GTTATCAA [8-mer GTTATCAA],binding signal,[3],10.8
same,binding signal,[1],10.7
same,binding signal,[4],10.8
same,binding signal,[5],10.6
AGTTACGA [8-mer AGTTACGA],binding signal,[2],11.8
CTTTATGC [8-mer CTTTATGC],binding signal,[1],12.3
TTATAAAA [8-mer TTATAAAA],binding signal,[1],12.4
same,binding signal,[4],12.1
same,binding signal,[6],11.6
TATAAATA [8-mer TATAAATA],binding signal,[1],12.2
same,binding signal,[4],12.2
same,binding signal,[6],11.5
GAGATAAA [8-mer GAGATAAA],binding signal,[1],12.4
same,binding signal,[7],9.88
same,binding signal,[8],8.83
same,binding signal,[9],8.73
GTATAAAA [8-mer GTATAAAA],binding signal,[1],13.2
same,binding signal,[4],13
GATATAAA [8-mer GATATAAA],binding signal,[1],12.2
same,binding signal,[4],12.2
CTTTATAC [8-mer CTTTATAC],binding signal,[1],12.8
same,binding signal,[4],12.4
GGGATTAA [8-mer GGGATTAA],binding signal,[1],12.4
same,binding signal,[7],12
same,binding signal,[8],10.2
same,binding signal,[9],8.74
same,binding signal,[10],10.9
ATTTATAC [8-mer ATTTATAC],binding signal,[1],12.9
same,binding signal,[4],12.6
GGTATAAA [8-mer GGTATAAA],binding signal,[1],13.3
same,binding signal,[4],12.7
GCATAAAA [8-mer GCATAAAA],binding signal,[1],13
same,binding signal,[4],12.2
GATAAAAC [8-mer GATAAAAC],binding signal,[1],12.6
same,binding signal,[4],12
CATTTATA [8-mer CATTTATA],binding signal,[1],12.2
same,binding signal,[4],12
same,binding signal,[6],11.6
GGATTAAC [8-mer GGATTAAC],binding signal,[1],12.2
same,binding signal,[7],11.8
same,binding signal,[8],9.98
same,binding signal,[9],8.57
same,binding signal,[10],10.5
CGTATAAA [8-mer CGTATAAA],binding signal,[1],13.1
same,binding signal,[4],12.8
TGTATAAA [8-mer TGTATAAA],binding signal,[1],12.6
same,binding signal,[4],12.7
AATTTATC [8-mer AATTTATC],binding signal,[1],12.2
same,binding signal,[11],12.8
same,binding signal,[12],11.7
GTTATAAA [8-mer GTTATAAA],binding signal,[1],12.5
same,binding signal,[4],12.1
CGCATAAA [8-mer CGCATAAA],binding signal,[1],12.5
same,binding signal,[4],12.1
GATTTATA [8-mer GATTTATA],binding signal,[1],12.2
same,binding signal,[4],12.1
same,binding signal,[6],11.5
GCGTATAA [8-mer GCGTATAA],binding signal,[1],12.2
same,binding signal,[4],12
TGGTATAA [8-mer TGGTATAA],binding signal,[1],12.2
GTGTAAAA [8-mer GTGTAAAA],binding signal,[1],12.3
CTTTTATA [8-mer CTTTTATA],binding signal,[1],12.4
same,binding signal,[4],12.2
same,binding signal,[6],11.6
ATTAATAC [8-mer ATTAATAC],binding signal,[1],12.7
same,binding signal,[4],12.4
same,binding signal,[10],9.56
AGTATAAA [8-mer AGTATAAA],binding signal,[1],12.8
same,binding signal,[4],12.6
CGGATTAA [8-mer CGGATTAA],binding signal,[1],12.5
same,binding signal,[7],11.5
same,binding signal,[8],9.79
same,binding signal,[9],8.53
same,binding signal,[10],10.2
GCGGATAA [8-mer GCGGATAA],binding signal,[1],12.3
same,binding signal,[7],9.96
same,binding signal,[8],8.73
same,binding signal,[9],8.47
GGAATTAA [8-mer GGAATTAA],binding signal,[1],12.3
same,binding signal,[7],10.8
same,binding signal,[8],9.44
same,binding signal,[9],8.88
same,binding signal,[10],9.49
AGGATTAA [8-mer AGGATTAA],binding signal,[1],12.3
same,binding signal,[7],11.8
same,binding signal,[8],10
same,binding signal,[9],8.81
same,binding signal,[10],10.6
GTATTAAA [8-mer GTATTAAA],binding signal,[1],12.6
same,binding signal,[4],12.4
CGTATTAA [8-mer CGTATTAA],binding signal,[1],12.4
same,binding signal,[4],12.3
GGATAAAA [8-mer GGATAAAA],binding signal,[1],13.2
GGTTTATA [8-mer GGTTTATA],binding signal,[1],12.4
same,binding signal,[4],12.3
CTTAATCC [8-mer CTTAATCC],binding signal,[1],12
same,binding signal,[7],11.6
same,binding signal,[8],9.86
same,binding signal,[9],8.63
same,binding signal,[10],10.4
GTATAAAC [8-mer GTATAAAC],binding signal,[1],13.1
same,binding signal,[4],12.8
GGTATTAA [8-mer GGTATTAA],binding signal,[1],12.8
same,binding signal,[4],12.2
same,binding signal,[10],9.56
ATATAAAT [8-mer ATATAAAT],binding signal,[1],12.2
same,binding signal,[4],12.2
same,binding signal,[6],11.7
TATAAACA [8-mer TATAAACA],binding signal,[1],12.2
same,binding signal,[4],12.2
same,binding signal,[6],11.5
GGATTAAA [8-mer GGATTAAA],binding signal,[1],12.9
same,binding signal,[7],11.5
same,binding signal,[8],9.65
same,binding signal,[9],8.69
same,binding signal,[10],10.1
CGATAAAA [8-mer CGATAAAA],binding signal,[4],12.3
GTGATAAA [8-mer GTGATAAA],binding signal,[4],12.1
AGTTTTAT [8-mer AGTTTTAT],binding signal,[4],12.2
CCGTACTA [8-mer CCGTACTA],binding signal,[4],11.5
ATTAATCC [8-mer ATTAATCC],binding signal,[1],12.5
same,binding signal,[7],11.9
same,binding signal,[8],10.3
same,binding signal,[9],8.89
same,binding signal,[10],10.8
GGGTACAA [8-mer GGGTACAA],binding signal,[4],11.8
ACTTTATA [8-mer ACTTTATA],binding signal,[4],12
CTTAGTAC [8-mer CTTAGTAC],binding signal,[4],11.7
CTTTTGTA [8-mer CTTTTGTA],binding signal,[4],11.7
GTACAAAC [8-mer GTACAAAC],binding signal,[4],12.8
TGTACAAA [8-mer TGTACAAA],binding signal,[4],12.7
ATACAAAA [8-mer ATACAAAA],binding signal,[4],12.1
TGGTACAA [8-mer TGGTACAA],binding signal,[4],11.8
GATAAATA [8-mer GATAAATA],binding signal,[1],12.3
same,binding signal,[13],12
GGTACAAC [8-mer GGTACAAC],binding signal,[4],11.6
GGTACAAA [8-mer GGTACAAA],binding signal,[4],12.7
ATTTGTAC [8-mer ATTTGTAC],binding signal,[4],12.6
TGTATTAA [8-mer TGTATTAA],binding signal,[4],12.1
AGTTGTAC [8-mer AGTTGTAC],binding signal,[4],11.6
GGTCTAAA [8-mer GGTCTAAA],binding signal,[4],11.6
GTACTAAA [8-mer GTACTAAA],binding signal,[4],12.4
CGTCTAAA [8-mer CGTCTAAA],binding signal,[4],12.1
CCGTACAA [8-mer CCGTACAA],binding signal,[4],12
GTTTTGTA [8-mer GTTTTGTA],binding signal,[4],12
AATATAAA [8-mer AATATAAA],binding signal,[4],12.1
ATAAAAAT [8-mer ATAAAAAT],binding signal,[4],12.1
TACAAAAA [8-mer TACAAAAA],binding signal,[4],12
GTTTTAGA [8-mer GTTTTAGA],binding signal,[4],11.6
TGATAAAA [8-mer TGATAAAA],binding signal,[4],12.1
ATTTAGAC [8-mer ATTTAGAC],binding signal,[4],11.8
CGTACTAA [8-mer CGTACTAA],binding signal,[4],12.2
CATCTAAA [8-mer CATCTAAA],binding signal,[4],11.9
CGTGTAAA [8-mer CGTGTAAA],binding signal,[4],12.5
CGTCCAAA [8-mer CGTCCAAA],binding signal,[4],11.4
CTTTGTAC [8-mer CTTTGTAC],binding signal,[4],12.5
AGTACAAA [8-mer AGTACAAA],binding signal,[4],12.5
GTCTAAAA [8-mer GTCTAAAA],binding signal,[4],12.3
GTCTAAAC [8-mer GTCTAAAC],binding signal,[4],11.9
ATTAGTAC [8-mer ATTAGTAC],binding signal,[4],12.1
GTGTACAA [8-mer GTGTACAA],binding signal,[4],11.8
GATTAATA [8-mer GATTAATA],binding signal,[7],11.1
same,binding signal,[8],9.56
same,binding signal,[9],8.89
same,binding signal,[10],9.83
CAATAGGG [8-mer CAATAGGG],binding signal,[11],10.6
CCATATAA [8-mer CCATATAA],binding signal,[11],11
AATAATGG [8-mer AATAATGG],binding signal,[11],12.8
GCTATTTA [8-mer GCTATTTA],binding signal,[11],11.9
AATGTAGC [8-mer AATGTAGC],binding signal,[11],11
ATTTTTAC [8-mer ATTTTTAC],binding signal,[11],10.8
TAACAACA [8-mer TAACAACA],binding signal,[11],11
AATTTCTC [8-mer AATTTCTC],binding signal,[11],11.8
